We go through four molecules from PMC10502657.

The chains behind the UniProt entries cited, without tags or fusion partners.
UniProt Q00987: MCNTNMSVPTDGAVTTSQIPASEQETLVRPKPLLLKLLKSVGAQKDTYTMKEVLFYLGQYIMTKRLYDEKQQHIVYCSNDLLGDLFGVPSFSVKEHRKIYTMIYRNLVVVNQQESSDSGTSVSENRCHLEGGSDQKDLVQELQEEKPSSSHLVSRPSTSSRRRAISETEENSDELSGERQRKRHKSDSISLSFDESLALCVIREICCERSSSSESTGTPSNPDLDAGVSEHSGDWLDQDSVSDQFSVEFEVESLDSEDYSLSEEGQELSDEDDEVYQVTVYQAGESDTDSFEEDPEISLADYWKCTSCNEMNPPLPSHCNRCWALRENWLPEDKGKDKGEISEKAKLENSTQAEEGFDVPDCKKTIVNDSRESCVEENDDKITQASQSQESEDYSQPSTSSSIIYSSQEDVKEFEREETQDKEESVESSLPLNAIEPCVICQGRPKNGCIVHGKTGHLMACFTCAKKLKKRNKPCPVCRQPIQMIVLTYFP

No constants are given. Whether binding was seen depends on the method and setting. Binding seen in cells or lysates may run through a third protein. Some entries that bind do so weakly or less than the wild type. For part of these data: Tags and fused reporters may be left off the sequences shown.

Assay [1] deals with USP7, exogenously expressed (tag not shown) (UniProt Q93009). As to the kind of experiment: co-IP; immunoprecipitation assays with deletion mutants of MLF2 and of USP7 (Figure S3C–E); cells and tags not shown.
Another assay concerns the target Flag–Mdm2 (UniProt Q00987). As to the kind of experiment: co-IP; HEK293T cells transfected with tagged proteins, lysed 24 h later (MG132 20 µM for 6 h before lysis); IP buffer 50 mM Tris-HCl pH 7.4, 150 mM NaCl, 1.5 mM MgCl2, 1 mM EDTA, 0.5% NP-40, 0.5% Triton X-100, 10% glycerol; western blot.
A further assay deals with Flag–USP7 (UniProt Q93009). Described as above.
Another assay deals with Flag–p53 (UniProt P04637). Described as above.
The target in assay [2] is USP7, exogenously expressed (tag not shown) (UniProt Q93009). Briefly: proximity ligation; Duolink In Situ Red Starter Kit on fixed, permeabilised cells with exogenously expressed proteins; isotype-matched rabbit and mouse IgG as negative control.
Assay [3] addresses p53, exogenously expressed (tag not shown) (UniProt P04637). The assay is described as above.

B1: MLF2 (aa 1–150) (domain or fragment, UniProt Q15773 1-150)
chain: MFRFMRDVEPEDPMFLMDPFAIHRQHMSRMLSGGFGYSPFLSITDGNMPGTRPASRRMQQAGAVSPFGMLGMSGGFMDMFGMMNDMIGNMEHMTAGGNCQTFSSSTVISYSNTGDGAPKVYQETSEMRSAPGGIRETRRTVRDSDSGLEQ
As to B1, in assay [1], the binding entry is “binds”.

B2: HA–MLF2 (protein, UniProt Q15773 1-248)
chain: MFRFMRDVEPEDPMFLMDPFAIHRQHMSRMLSGGFGYSPFLSITDGNMPGTRPASRRMQQAGAVSPFGMLGMSGGFMDMFGMMNDMIGNMEHMTAGGNCQTFSSSTVISYSNTGDGAPKVYQETSEMRSAPGGIRETRRTVRDSDSGLEQMSIGHHIRDRAHILQRSRNHRTGDQEERQDYINLDESEAAAFDDEWRRETSRFRQQRPLEFRRLESSGAGGRRAEGPPRLAIQGPEDSPSRQSRRYDW
Turning to B2, the binding entry is “no binding” with Flag–Mdm2 and “binds” with Flag–USP7.

B3: GFP–MLF2 (protein, UniProt Q15773 1-248)
chain: MFRFMRDVEPEDPMFLMDPFAIHRQHMSRMLSGGFGYSPFLSITDGNMPGTRPASRRMQQAGAVSPFGMLGMSGGFMDMFGMMNDMIGNMEHMTAGGNCQTFSSSTVISYSNTGDGAPKVYQETSEMRSAPGGIRETRRTVRDSDSGLEQMSIGHHIRDRAHILQRSRNHRTGDQEERQDYINLDESEAAAFDDEWRRETSRFRQQRPLEFRRLESSGAGGRRAEGPPRLAIQGPEDSPSRQSRRYDW
On to B3, for which the binding result with Flag–p53 is “binds”.

B4: MLF2, exogenously expressed (tag not shown) (protein, UniProt Q15773 1-248)
chain: MFRFMRDVEPEDPMFLMDPFAIHRQHMSRMLSGGFGYSPFLSITDGNMPGTRPASRRMQQAGAVSPFGMLGMSGGFMDMFGMMNDMIGNMEHMTAGGNCQTFSSSTVISYSNTGDGAPKVYQETSEMRSAPGGIRETRRTVRDSDSGLEQMSIGHHIRDRAHILQRSRNHRTGDQEERQDYINLDESEAAAFDDEWRRETSRFRQQRPLEFRRLESSGAGGRRAEGPPRLAIQGPEDSPSRQSRRYDW
With B4, the binding result in assay [2] and in assay [3] was “binds” each time.
